# The other results are listed elsewhere or left out. Read counts after selection give these values, which scatter widely. Scores sum up all selected molecules that hold the word; the word was not tested alone.
# Test system: IMP3 KH3-4
# Experiment: 6-mer SELEX enrichment z-score vs GST control; IMP3 is the RNA-binding protein IGF2BP3; higher = more enriched by binding
# Details: construct: KH3-4 (377-579); SELEX round: R4
# Protocol: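 SELEX-seq with GST-tagged IMP3 KH3-4 (Pro377-Lys579) and an N40 RNA pool, round 4. 6-mer z-score of sequence-tag enrichment normalised to the corresponding GST SELEX round; RNA k-mers written as DNA (T for U).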
# Sequence of IMP3 KH3-4 (chain, as listed by the source): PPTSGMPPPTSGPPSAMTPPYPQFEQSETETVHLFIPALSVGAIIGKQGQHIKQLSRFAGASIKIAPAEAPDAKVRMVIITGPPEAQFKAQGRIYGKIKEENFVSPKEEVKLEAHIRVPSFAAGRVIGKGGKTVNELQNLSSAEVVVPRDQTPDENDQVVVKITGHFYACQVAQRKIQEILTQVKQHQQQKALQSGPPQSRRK
row,Sequence,6-mer SELEX enrichment z-score
1,TATTCT,0.859
2,GTACCT,-1.31
3,CCGGTC,-0.346
4,ATTTCG,0.149
5,ATCTCG,-0.67
6,TCAGTA,0.259
7,GTCGCC,-0.029
8,ATCGTG,-0.498
9,CTGGCG,-0.315
10,AGACGA,-0.669
11,AGCGGT,0.071
12,GAGTAC,-0.556
13,CGGAGA,0.082
14,GGATAC,0.091
15,TATCCA,-0.941
16,CTTCCC,-0.946
17,GCAGAA,0.184
18,CGAACG,-2.94
19,CATAGC,0.024
20,TGGGGG,1.4

row,Sequence,6-mer SELEX enrichment z-score
1,AGACTA,0.422
2,GCCGAC,-1.28
3,CAGGAA,0.747
4,GGATGC,0.249
5,GAAGCC,-1.06
6,TCCCTG,-0.704
7,GTTTTC,0.009
8,GGCCTA,0.302
9,CTGCAA,-0.197
10,ACGGAC,-0.51
11,GCAGCC,-0.328
12,ACCTGC,-1.76
13,GGTTGA,-0.041
14,TGCTGG,0.278
15,GCGGCC,1.01
16,CGTAGC,-1.8
17,CCCTCA,-0.824
18,GATTAC,0.689
19,CCGCTC,-0.486
20,TGCTAA,0.179
